# Experimental data: PubChem BioAssay AID651820 (National Center for Advancing Translational Sciences (NCATS), 2012)
# Screen size: about 340,000 compounds; about 12,000 (3.5%) were called active. This list was built around the results that the source calls inconclusive (neither active nor inactive); the mix of calls is not that of the screen. Calls follow the shape of the dose curve; as a rule, active = well fitted inhibition curve with a large enough effect; inconclusive = small, poorly fitted or top-dose-only effect, or another doubt; inactive = no such curve, though single readings can be large or run the other way. No potency is given beside an inconclusive call; the fits are too rough.
# Assay: qHTS Assay for Inhibitors of Hepatitis C Virus (HCV)
# Details: Huh7.5.1 HCVcc-Cre (HCVcc is cell-culture hepatitis C virus) infection, luciferase reporter, 44 h; activity change, negative = inhibition: at 41.8 µM (top of the series) unless noted
# Outline: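 Whole-lifecycle infectious HCVcc-Cre system; cells 1,000/well, compound then virus (~0.5 moi) added 4 h after plating, 44 h culture. Luciferase read 15 sec following 15 min substrate incubation, room temp.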
# % is scaled to controls: 0 for no effect and ±100 for the full control effect; potency is read from the fitted curve at half-maximal effect; tags tell the direction and shape of the fitted curve.
SMILES,Potency,"activity change, negative = inhibition"
Cc1ccc(NC(=O)C2(c3ccc([N+](=O)[O-])cc3)CCCC2)cc1,"inconclusive [inhibitor, single point]",
O=S(=O)(NC1CCCCC1N1CCN(c2ccccc2F)CC1)c1ccccc1 (stereo unspecified),"inconclusive [inhibitor, single point]",
COc1cccc(NC(=S)NC(=O)/C=C/c2ccc(F)cc2)c1,inactive,
Cc1cc2ccccc2n2c(SCC(=O)NCc3cccs3)nnc12,"inconclusive [inhibitor, full curve, poor fit]",
Fc1ccccc1NC(=S)NCCc1cccc(Cl)c1,inactive,
CCCCN(CC)CCCNC(=O)c1cc2c(-c3ccc(OC)c(OC)c3)nn(C)c2s1,"inconclusive [inhibitor, partial curve]",
COC(=O)c1ccccc1NS(=O)(=O)c1ccc2[nH]c(=O)[nH]c2c1,"inconclusive [inhibitor, partial curve]",
Cc1ccc(S(=O)(=O)Nc2cccc(-n3cnnn3)c2)cc1C,inactive,
CCCCCC1C(=O)C[C@@H]2CCN3C(=O)CCC[C@H]1[C@H]23 (stereo partly specified),"inconclusive [inhibitor, single point]",
CC1CCCCC1NC(=O)COC(=O)c1ccc2c(=O)n3c(nc2c1)CCC3 (stereo unspecified),inactive,
CCNC(=S)N/N=C(\C)c1ccc(Cl)s1,"inconclusive [inhibitor, single point]",
Clc1ccc(CSc2nnc(-c3cccnc3)o2)cc1,inactive,
Cc1cccn2c(=O)c3cc(C#N)c(=O)n(CCCN4CCOCC4)c3nc12,"inconclusive [inhibitor, single point]",
CCCCOc1ccc(CNn2c(C)nc3ccccc3c2=O)cc1,active: 10 µM,
CN=C1S/C(=C\c2ccc(Cl)cc2)C(=O)N1C,active: 11.2 µM,
CC(C)[C@H](NC(=O)c1ccccc1)C(=O)OCC(=O)N1CCCc2ccccc21,"inconclusive [inhibitor, partial curve]",
CC(=O)/C(=N/Nc1ccccc1[N+](=O)[O-])N1CCCc2ccccc21,,inconclusive: -37.1% [inhibitor]
COc1cc(CN(C)Cc2cc(=O)n3ccsc3n2)ccc1OC(F)F,"inconclusive [inhibitor, partial curve]",
CN(C)C/C=C(\c1ccc(Br)cc1)c1cccnc1,"inconclusive [inhibitor, single point]",
O=C(COc1ccc(S(=O)(=O)NC2CCCCC2)cc1Cl)NCC1CCCO1 (stereo unspecified),inactive,
CN1c2ccccc2-c2ccccc2S1(=O)=O,"inconclusive [inhibitor, single point]",
Cc1nc(C(C)NC(=O)c2cc(COc3ccc(C)c(C)c3)on2)c(C)s1 (stereo unspecified),"inconclusive [inhibitor, partial curve]",
CC(Oc1cccc(Cl)c1)C(=O)Nc1cc(S(=O)(=O)N2CCOCC2)ccc1N1CCCC1 (stereo unspecified),inactive,
Cc1c(C(=O)Nc2cccc([N+](=O)[O-])c2)csc1-c1ccccc1,active: 7.08 µM,

SMILES,Potency,"activity change, negative = inhibition"
COC(=O)C1=C(C)NC(=S)N(C(C)=O)C1c1ccc(OC)c(OC)c1 (stereo unspecified),inactive,
O=C(Nc1ccc2c(c1)C(=O)OC2)c1ccc(Cl)cc1,inactive,
OCCNCc1ccc(OCc2ccc(Cl)cc2Cl)cc1,"inconclusive [inhibitor, partial curve, poor fit]",
CCOC(=O)N1CCN(CCC(=O)Nc2cccc(Br)c2)CC1,"inconclusive [inhibitor, single point]",
CCCCn1c(N)c(N(CC(C)C)C(=O)c2cc(C)nc3ccccc23)c(=O)[nH]c1=O,"inconclusive [inhibitor, single point]",
O=C(Nc1ccccc1)Nc1sccc1-c1nc2ccccc2s1,inactive,
S=C(c1ccccc1)N1CCSCC1,inactive,
CN(C(=O)c1cccc(NC(=O)Cc2cccc([N+](=O)[O-])c2)c1)C1CCCCC1,"inconclusive [inhibitor, partial curve]",
COc1ccc(-c2nc3cc(NC(=O)c4ccc5c(c4)OCO5)ccc3o2)cc1,"inconclusive [inhibitor, single point]",
CCCCn1c(O)c(C=NCCN2CCCCC2)c(=O)[nH]c1=O,"inconclusive [inhibitor, single point]",
COc1cc(C)c(NC(=O)COc2cccc3c2OC(C)(C)C3)cc1OC,active: 10 µM,
Cc1cc(C)nc(SC2CCCCC2NS(=O)(=O)c2ccc(Cl)cc2)n1 (stereo unspecified),"inconclusive [inhibitor, single point]",
CCN1CCC(N2CCN(c3ccc(Cl)cc3)CC2)CC1,inactive,
CCN(c1ccccc1)S(=O)(=O)c1ccc(Cl)c(NC(=O)CSc2n[nH]c(N)n2)c1,"inconclusive [inhibitor, full curve]",
CCOC1OC2C(CO)OC(n3cnc4c(N)ncnc43)C2O1 (stereo unspecified),inactive,
CC1CCCC(NC(=O)CN2C(=O)c3cccnc3Oc3ccc(Cl)cc32)C1C (stereo unspecified),"inconclusive [inhibitor, single point]",
Cc1ccc(C(=O)CC2(O)C(=O)N(CCc3ccccc3)c3ccc(Br)cc32)o1 (stereo unspecified),"inconclusive [inhibitor, single point]",
CCN1CCN(c2ccc(S(=O)(=O)N3CCOCC3)cc2NC(=O)C2CCC(C(C)(C)C)CC2)CC1 (stereo unspecified),"inconclusive [inhibitor, single point]",
CCC(=O)NC1=C(Cl)C(=O)C(NC(=O)CC)=C(Cl)C1=O,"inconclusive [inhibitor, single point]",
COc1ccc(/C=C2/NC(=O)N(Cc3ccccc3F)C2=O)cc1OC,"inconclusive [inhibitor, partial curve, poor fit]",
CCC(C)(C(=O)NC1CCCCC1)N(Cc1ccco1)C(=O)c1cnccn1 (stereo unspecified),"inconclusive [inhibitor, single point]",
CCCOc1ccccc1OCC(=O)Nc1ccc(S(=O)(=O)N2CCCCC2)cc1,"inconclusive [inhibitor, full curve]",
Cc1cc(N2CCOCC2)n2cc(-c3ccccc3)nc2n1,"inconclusive [inhibitor, single point]",
CN(C)S(=O)(=O)c1cccc(NC(=O)CNCC2CCCCC2)c1,"inconclusive [inhibitor, partial curve, poor fit]",

SMILES,Potency,"activity change, negative = inhibition"
Cc1ccc(N2C(=O)Cc3ccccc3C2=O)cc1,inactive,
COc1ccc(-n2c(C)cc(/C=N/Nc3nc(N4CCOCC4)nc(N4CCOCC4)n3)c2C)cc1,inactive,
CCCCN(C)S(=O)(=O)c1cc2c(cc1Br)CCN2C(=O)C1CC1,"inconclusive [inhibitor, single point]",
CCC(C)NC(=O)c1ccc(NC(=O)CC2SC(N3CCCCC3)=NC2=O)cc1 (stereo unspecified),inactive,
Cc1c(C(=O)C(=O)NCCc2ccc(S(N)(=O)=O)cc2)c2ccccc2n1C,inactive,
CCCCn1c(N)c(N(CC(C)C)C(=O)C2CCN(c3ncnc4sc(C)c(C)c34)CC2)c(=O)[nH]c1=O,"inconclusive [inhibitor, single point]",
COc1ccc(N/C=C/C(=O)c2ccc(OC)c(OC)c2)cc1,inactive,
CC(C)CC(=O)Nc1ccc(C(=O)CN2CCN(c3ccc(O)cc3)CC2)cc1,inactive,
O=C(CSCc1ccc(Cl)cc1)N/N=C/c1ccc(OCC(=O)Nc2ccccc2)cc1,"inconclusive [inhibitor, single point]",
N=C1S/C(=C\c2cccc3ccccc23)C(=O)N1c1ccc(F)cc1,"inconclusive [inhibitor, single point]",
CCCCN(C(=O)c1c(CC)noc1C)c1c(N)n(CCCC)c(=O)[nH]c1=O,"inconclusive [inhibitor, single point]",
C/C(=N\NS(=O)(=O)c1ccc(C)c([N+](=O)[O-])c1)c1cccs1,"inconclusive [inhibitor, single point]",
Cc1nc2cc(N3CCCCC3)c(NC(=O)c3cccnc3)cc2c(=O)n1Cc1ccccc1,"inconclusive [inhibitor, partial curve]",
O=C(NCCCN1CCN(c2ccc(F)cc2)CC1)C1CCCN(c2ncnc3c2nc2n3CCCCC2)C1 (stereo unspecified),"inconclusive [inhibitor, partial curve]",
Cc1c(C)c2cc(Cl)c(OCC(=O)NC3CC(C)(C)NC(C)(C)C3)cc2oc1=O,"inconclusive [inhibitor, partial curve]",
COc1cc(-c2nnc(CSc3nnc(Nc4ccc(C(C)C)cc4)s3)o2)cc(OC)c1OC,active: 7.08 µM,
CCOC(=O)c1cnc2ccc(C(=O)OC)cc2c1Nc1ccc2c(c1)OCCO2,"inconclusive [inhibitor, partial curve]",
CCOC(=O)c1c(C)[nH]c(NC(=O)N2CCOCC2)c1C,"inconclusive [inhibitor, single point]",
CCOC(=O)CCc1c(C)nc2c(c(C)nn2C(C)(C)C)c1C,"inconclusive [inhibitor, single point]",
S=C(NN=C1CCCCCC1)Nc1ccc(Cl)cc1,inactive,
CC1(C)CC(N2CN(C3CCCCC3)CC2=O)CC(C)(C)N1,inactive,
Cc1ccc2nc(NC(=O)c3ccccn3)sc2c1,"inconclusive [inhibitor, partial curve]",
CCc1ccc2[nH]c(=O)c(CN(CCCN3CCOCC3)C(=O)Nc3ccc(F)cc3)cc2c1,"inconclusive [inhibitor, partial curve]",
